This is one part of the list. Repeats are few or missing, and single values can be far off.
The molecules below were run on COLO829 (assay: cell count relative to DMSO control; melanoma cells; higher = more viable cells). Conditions: library dose: low library concentration; 72 h.
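Also: cell number obtained by counting DAPI-stained nuclei in high-throughput microscope images with image analysis software, screen run in 1,536-well plates.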

Compound | cell count [%]
C[C@@H](Oc1cc(-c2cnn(C3CCNCC3)c2)cnc1N)c1c(Cl)ccc(F)c1Cl [Crizotinib] + CO[C@H]1C[C@@H]2CC[C@@H](C)[C@@](O)(O2)C(=O)C(=O)N2CCCC[C@H]2C(=O)O[C@H]([C@H](C)C[C@@H]2CC[C@@H](OCCO)[C@H](OC)C2)CC(=O)[C@H](C)/C=C(\C)[C@@H](O)[C@@H](OC)C(=O)[C@H](C)C[C@H](C)/C=C/C=C/C=C/1C [everolimus] (first compound 0.2 µM, partner dose 0.02 µM) | 72
CN1CCN(c2ccc3nc(-c4c(N)c5c(F)cccc5[nH]c4=O)[nH]c3c2)CC1 [Dovitinib] + CC(=O)c1c(C)c2cnc(Nc3ccc(N4CCNCC4)cn3)nc2n(C2CCCC2)c1=O [palbociclib] (first compound 0.1 µM, partner dose 0.04 µM) | 90.2
CS(=O)(=O)CCNCc1ccc(-c2ccc3ncnc(Nc4ccc(OCc5cccc(F)c5)c(Cl)c4)c3c2)o1 [lapatinib] + C#Cc1cccc(Nc2ncnc3cc(OCCOC)c(OCCOC)cc23)c1 [erlotinib] (first compound 0.8 µM, partner dose 0.8 µM) | 137
C[C@@H](Oc1cc(-c2cnn(C3CCNCC3)c2)cnc1N)c1c(Cl)ccc(F)c1Cl [Crizotinib] + CN1CCN(c2ccc3nc(-c4c(N)c5c(F)cccc5[nH]c4=O)[nH]c3c2)CC1 [Dovitinib] (first compound 0.2 µM, partner dose 0.1 µM) | 100
